Results on four compounds are retold here after patent US9242009B2, “Compositions and methods to treat neurodegenerative diseases” (The General Hospital Corporation, priority 2012, dated 2016).

Where two headings read alike, the source gives them in different places.

The data set deals with mice subjected to bilateral carotid artery occlusion (BCAO) and reperfusion. The note with it: for Days after BCAO on which neurological score was improved: 25 μmol/kg i.p., P<0.05 vs. vehicle; for Body temperature: 25 μmol/kg, mice.
Where [1] appears, read: 25 μmol/kg i.p. 1 minute after reperfusion, N=12.

For `C[C@]12C[C@@H]3C[C@](C)(C1)C[C@@](NC(=O)c1ccc(-c4cssc4=S)cc1)(C3)C2` [S-memantine, N-((1r,3R,5S,7r)-3,5-dimethyladamantan-1-yl)-4-(3-thioxo-3H-1,2-dithiol-4-yl)-benzamide], the “Days after BCAO on which neurological score was improved” value is listed as 1-4 day and the Body temperature result was “did not affect body temperature”. Further, under setting [1], the “Number of mice surviving for more than 60 days after BCAO” value (“Number of mice surviving” below) was 5 mice and the “Survival rate after BCAO (log-rank test)” value was “markedly higher survival rate”. In addition, where the note is “24 hours after BCAO and reperfusion, TTC staining, P<0.001”, the “Cerebral infarct volume compared to vehicle” value was “markedly decreased cerebral infarct volume”.
On to Sodium sulfide [Na2S], for which, where the note is “mouse, in vivo”, the “Brain injury after BCAO” value is “failed to prevent brain injury”. Besides, for the setting “mouse, in vivo, ip”, the “Mice that died in 2 days after BCAO” value is recorded as 67%, the “Survival rate after BCAO (log-rank test)” value was “no significant difference in survival rate” and the “Time in which all treated mice died after BCAO” value came to 10 days.
Regarding `CC12CC3CC(C)(C1)CC(N)(C3)C2` [memantine], the “Days after BCAO on which neurological score was improved” value was 2-3 day. The “Survival rate after BCAO (log-rank test)” value under setting [1] is reported as “no significant difference in survival rate”. Also, the “Number of mice surviving” value (mouse, in vivo, ip) was 2 mice.
As for `O=C(O)c1ccc(-c2cssc2=S)cc1` [ACS48, 4-(3-thioxo-3H-1,2-dithiol-4-yl)-benzoic acid], the Body temperature entry was “did not affect body temperature”. In addition, under setting [1], the “Number of mice surviving” value is recorded as 1 mice and the “Survival rate after BCAO (log-rank test)” value is recorded as “no significant difference in survival rate”.
